According to the supplement of paper PMC9446081:
Among all 39,000 compounds or so, about 220 (0.56%) showed activity. The list shows a part of the results.

Test system: Escherichia coli K-12 BW25113
Assay: relative growth (OD600 normalised to plate interquartile mean) (fraction); higher = less growth inhibition, active = 0.2 or less
Settings: 50 µM; LB; incubation time: overnight (16-24 h)
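Also: static incubation at 37 °C against the wild-type strain, values averaged over two biological replicates.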

For `Cc1cc(C(=O)Nc2cccc3c2O[C@H](CN(C)Cc2ccccc2)[C@H](C)CN([C@@H](C)CO)C3=O)n(C)n1`, which relative growth is on record?
The relative growth was inactive: 1.01.

`COc1ccc(COC[C@]23N=C4Sc5ccc([N+](=O)[O-])cc5C(=O)N4[C@H](c4ccccc4O2)[C@H]3CO[Si](C)(C)C(C)(C)C)cc1` was tested. Which relative growth did it give?
The relative growth was inactive: 1.03.

With `CCN(CC)CCCNC(=O)C1CCNCC1` as the molecule, how does the relative growth read?
Its relative growth is inactive: 1.02.

Which relative growth does the source give for `COc1ccc2c3c(n(c2c1)C)[C@@H](CO)N(C[C@]13CCN(CC1)C(=O)Nc1ccc(cc1)F)C(=O)c1ccc(cc1)F` here?
The relative growth was inactive: 1.01.

Which relative growth does the source give for `C[C@@H]1CN([C@H](C)CO)C(=O)c2cc(NC(=O)CCC(F)(F)F)ccc2O[C@@H](C)CCCCO[C@H]1CN(C)S(=O)(=O)c1ccc(Cl)cc1` here?
The relative growth was inactive: 0.991.

`Cc1noc(C)c1NC(=O)Nc1ccc2c(c1)C(=O)N([C@@H](C)CO)C[C@@H](C)[C@H](CN(C)S(=O)(=O)c1cccs1)OCCCC[C@@H](C)O2` was tested. Which relative growth did it give?
The relative growth was inactive: 0.994.

With `C[C@H](CO)N1C[C@H](C)[C@H](CN(C)S(=O)(=O)c2cccs2)Oc2c(NS(=O)(=O)c3ccccc3)cccc2C1=O` as the molecule, how does the relative growth read?
Its relative growth is inactive: 1.03.

`CN(CCN)c1ccccc1` was tested. Which relative growth did it give?
Its relative growth is inactive: 0.973.

For `Cc1ccc(S(=O)(=O)N(C)C[C@H]2Oc3ncc(-c4ccncc4)cc3C(=O)N([C@@H](C)CO)C[C@@H]2C)cc1`, which relative growth is on record?
Its relative growth is inactive: 0.99.

With `C[C@H](CO)N1C[C@H](C)[C@@H](CN(C)S(=O)(=O)c2ccc(F)cc2)OCCCC[C@H](C)Oc2ccc(NS(C)(=O)=O)cc2C1=O` as the molecule, how does the relative growth read?
The relative growth was inactive: 0.992.

`NC(=O)NC[C@H](N)C(=O)O` was tested. Which relative growth did it give?
Its relative growth is inactive: 0.982.

For `COc1ccc(NC(=O)Nc2ccc3c(c2)C(=O)N([C@H](C)CO)C[C@@H](C)[C@H](CN(C)C(=O)Cc2ccccc2)OCCCC[C@@H](C)O3)cc1`, which relative growth is on record?
The relative growth was inactive: 1.

With `COc1ccc(S(=O)(=O)N[C@H]2CC[C@@H](CC(=O)N3CCC(Cc4ccccc4)CC3)O[C@H]2CO)cc1` as the molecule, how does the relative growth read?
Its relative growth is inactive: 1.02.

Which relative growth does the source give for `Cc1ccc(S(=O)(=O)NC2=NCN(CCN3CCOCC3)CN2)cc1` here?
The relative growth was inactive: 0.997.

With `C[C@@H]1CN([C@H](C)CO)C(=O)Cc2cc(NC(=O)c3ccncc3)ccc2O[C@@H]1CN(C)S(C)(=O)=O` as the molecule, how does the relative growth read?
Its relative growth is inactive: 1.02.

With `C[C@@H]1CN([C@@H](C)CO)C(=O)c2cc(NC(=O)Nc3ccc4c(c3)OCO4)ccc2O[C@@H]1CN(C)C(=O)Nc1ccc(C(F)(F)F)cc1` as the molecule, how does the relative growth read?
The relative growth was inactive: 0.994.

With `CCC(=O)O[C@@H](OP(=O)(CCCCc1ccccc1)CC(=O)N1C[C@H](C2CCCCC2)C[C@H]1C(=O)O)C(C)C` (stereo partly specified) as the molecule, how does the relative growth read?
Its relative growth is inactive: 0.982.

For `N[C@@H]1CC[C@H](CCn2cc(C3CC3)nn2)O[C@@H]1CO`, which relative growth is on record?
The relative growth was inactive: 0.967.

Which relative growth does the source give for `COc1ccc(S(=O)(=O)N(C)C[C@@H]2Oc3ccc(NS(=O)(=O)c4c(C)noc4C)cc3CC(=O)N([C@@H](C)CO)C[C@H]2C)cc1` here?
Its relative growth is inactive: 0.999.

`CO[C@@H]1CN(C)C(=O)c2cc(NC(=O)c3ccccc3)ccc2OC[C@@H](C)N(C(=O)CN(C)C)C[C@H]1C` was tested. Which relative growth did it give?
The relative growth was inactive: 0.974.

How did the relative growth turn out when `C=CC[C@@H](CC(=O)NCCO)C(=O)N[C@@H](COC(=O)[C@H](CC=C)CC(=O)OC(C)(C)C)Cc1c[nH]c2ccccc12` was run?
The relative growth was inactive: 0.995.

How did the relative growth turn out when `C[C@H]1CCCCO[C@H](CN(C)C(=O)Cc2ccccc2)[C@@H](C)CN([C@@H](C)CO)C(=O)c2cc(NC(=O)Nc3ccc4c(c3)OCO4)ccc2O1` was run?
Its relative growth is inactive: 1.04.

Which relative growth does the source give for `C#CCN([C@H](/C=C/C1CC1)[C@@H](O)CCn1cc(-c2ccc(C(=O)NO)s2)nn1)[C@@H](Cc1ccccc1)C(=O)OC` here?
The relative growth was inactive: 1.03.

With `COc1ccc(CN(C)C[C@@H]2Oc3c(NC(=O)C4CCOCC4)cccc3C(=O)N([C@@H](C)CO)C[C@H]2C)cc1` as the molecule, how does the relative growth read?
The relative growth was inactive: 0.977.

`COc1ccc(S(=O)(=O)Nc2ccc3c(c2)C(=O)N([C@@H](C)CO)C[C@@H](C)[C@H](CN(C)C(=O)c2ccccc2)OCCCC[C@H](C)O3)cc1` was tested. Which relative growth did it give?
Its relative growth is inactive: 1.02.

How did the relative growth turn out when `CC(=O)NCc1nccc(N2CCCC2)n1` was run?
Its relative growth is inactive: 0.969.

Which relative growth does the source give for `CC(=O)Nc1cc(Cl)ccc1C` here?
Its relative growth is inactive: 1.01.

For `C[C@@H]1CN([C@H](C)CO)C(=O)CCCn2cc(nn2)CO[C@H]1CN(C)C(=O)Nc1ccc(C(F)(F)F)cc1`, which relative growth is on record?
Its relative growth is inactive: 0.978.

Which relative growth does the source give for `Cc1noc(C)c1NC(=O)N(C)C[C@H]1Oc2ccc(NC(=O)CCCN(C)C)cc2C(=O)N([C@@H](C)CO)C[C@@H]1C` here?
The relative growth was inactive: 0.989.

With `C[C@@H]1CCCCO[C@@H](CN(C)C(=O)Nc2ccc3c(c2)OCO3)[C@H](C)CN([C@@H](C)CO)C(=O)c2cc(NS(=O)(=O)c3ccc(Cl)cc3)ccc2O1` as the molecule, how does the relative growth read?
Its relative growth is inactive: 1.03.

For `COC(=O)Cc1c(C)[nH]c(=S)[nH]c1=O`, which relative growth is on record?
Its relative growth is inactive: 0.997.

`O=C(C[C@H]1CC[C@H]2[C@@H](COC[C@@H](O)CN2C(=O)c2ccccc2)O1)NCCCN1CCOCC1` was tested. Which relative growth did it give?
The relative growth was inactive: 0.992.

How did the relative growth turn out when `Cc1n[nH]c(=O)nc1NCCCOC(C)C` was run?
Its relative growth is inactive: 0.994.

`CCC(=O)N[C@@H]1CC[C@@H](CC(=O)OC)O[C@H]1CO` was tested. Which relative growth did it give?
The relative growth was inactive: 1.04.

`C[C@@H]1CN([C@H](C)CO)C(=O)Cc2cc(NC(=O)CCC(F)(F)F)ccc2O[C@H]1CN(C)Cc1ccc(-c2ccccc2)cc1` was tested. Which relative growth did it give?
The relative growth was inactive: 1.03.

`C[C@@H]1CCCCO[C@@H](CN(C)C(=O)NC2CCCCC2)[C@@H](C)CN([C@H](C)CO)C(=O)c2cc(NC(=O)C3CCCCC3)ccc2O1` was tested. Which relative growth did it give?
The relative growth was inactive: 1.02.

For `CCCCCCc1nc(-c2cc(C)c(OC)c(C)c2)cc2c1[Si](C(C)C)(C(C)C)O[C@H]2c1ccccc1`, which relative growth is on record?
Its relative growth is inactive: 1.01.

Which relative growth does the source give for `C[C@H](CO)N1C[C@H](C)[C@@H](CN(C)Cc2ccc3c(c2)OCO3)OCCCC[C@H](C)Oc2ccc(NC(=O)Nc3ccc4c(c3)OCO4)cc2C1=O` here?
The relative growth was inactive: 0.975.

How did the relative growth turn out when `O=C(C[C@@H]1CC[C@@H]2[C@H](COC[C@@H](O)CN2S(=O)(=O)c2ccc(Cl)cc2)O1)N[C@@H]1CCN(Cc2ccccc2)C1` was run?
The relative growth was inactive: 0.963.

Which relative growth does the source give for `NS(=O)(=O)c1cc2c(cc1C(F)(F)F)NC(Cc1ccccc1)NS2(=O)=O` (stereo unspecified) here?
The relative growth was inactive: 1.21.

For `COc1ccc(NC(=O)N(C)C[C@H]2OCCCC[C@H](C)Oc3ccc(NC(=O)Nc4cccc5ccccc45)cc3C(=O)N([C@@H](C)CO)C[C@H]2C)cc1`, which relative growth is on record?
The relative growth was inactive: 1.05.
